A compilation of properties of binary mixtures (doi:10.1016/j.molliq.2022.118933)
Some of these densities may be calculated back from excess volumes.

Experiment: xn = mol fraction of the nth substance listed
Settings: 100 kPa

CCCC[N+](C)(C)C[c-]1cccc1.O=S(=O)([N-]S(=O)(=O)C(F)(F)F)C(F)(F)F.[Fe+2].c1cc[cH-]c1 + CC#N
Settings | mass density [kg/m3]
293 K, x1 = 0.01 | 839.1
293 K, x1 = 0.02 | 887.6
293 K, x1 = 0.03 | 930.8
293 K, x1 = 0.07 | 1062.1
293 K, x1 = 0.08 | 1087
293 K, x1 = 0.1 | 1128.7
293 K, x1 = 0.12 | 1165.7
293 K, x1 = 0.15 | 1209.6
293 K, x1 = 0.2 | 1259.7
298 K, x1 = 0.01 | 833.7
298 K, x1 = 0.02 | 882.2
298 K, x1 = 0.05 | 996.7
298 K, x1 = 0.06 | 1030.9
298 K, x1 = 0.07 | 1056.8
298 K, x1 = 0.08 | 1081.8
298 K, x1 = 0.1 | 1123.5
298 K, x1 = 0.12 | 1160.6
298 K, x1 = 0.15 | 1204.5
298 K, x1 = 0.2 | 1254.8
303 K, x1 = 0.01 | 828.3
303 K, x1 = 0.02 | 876.8
303 K, x1 = 0.03 | 920
303 K, x1 = 0.05 | 991.3
303 K, x1 = 0.06 | 1025.5
303 K, x1 = 0.07 | 1051.4
303 K, x1 = 0.08 | 1076.4
303 K, x1 = 0.12 | 1155.4
303 K, x1 = 0.15 | 1199.4
303 K, x1 = 0.2 | 1248.9
308 K, x1 = 0.01 | 822.8
308 K, x1 = 0.02 | 871.4
308 K, x1 = 0.03 | 914.6
308 K, x1 = 0.05 | 986
308 K, x1 = 0.06 | 1020.2
308 K, x1 = 0.07 | 1046.2
308 K, x1 = 0.1 | 1113.2
308 K, x1 = 0.12 | 1150.3
308 K, x1 = 0.15 | 1194.4
313 K, x1 = 0.01 | 817.4
313 K, x1 = 0.02 | 866
313 K, x1 = 0.03 | 909.2
313 K, x1 = 0.05 | 980.6
313 K, x1 = 0.06 | 1015
313 K, x1 = 0.08 | 1066.1
313 K, x1 = 0.1 | 1108
313 K, x1 = 0.12 | 1145.3
313 K, x1 = 0.15 | 1189.4
313 K, x1 = 0.2 | 1240.1
318 K, x1 = 0.02 | 860.4
318 K, x1 = 0.03 | 903.7
318 K, x1 = 0.05 | 975.1
318 K, x1 = 0.07 | 1035.5
318 K, x1 = 0.1 | 1102.7
318 K, x1 = 0.12 | 1140
323 K, x1 = 0.02 | 854.6
323 K, x1 = 0.03 | 897.9
323 K, x1 = 0.05 | 969.4
323 K, x1 = 0.06 | 1003.8
323 K, x1 = 0.07 | 1029.9
323 K, x1 = 0.08 | 1055.1
323 K, x1 = 0.1 | 1097.2
323 K, x1 = 0.12 | 1134.6
323 K, x1 = 0.15 | 1178.9
328 K, x1 = 0.01 | 800.5
328 K, x1 = 0.02 | 849.1
328 K, x1 = 0.03 | 892.4
328 K, x1 = 0.06 | 998.5
328 K, x1 = 0.07 | 1024.6
328 K, x1 = 0.08 | 1049.8
328 K, x1 = 0.1 | 1092
328 K, x1 = 0.15 | 1173.9
328 K, x1 = 0.2 | 1224.8
333 K, x1 = 0.05 | 958.6
333 K, x1 = 0.06 | 993.2
333 K, x1 = 0.08 | 1044.6
333 K, x1 = 0.1 | 1086.9
333 K, x1 = 0.12 | 1124.5
333 K, x1 = 0.15 | 1168.9
333 K, x1 = 0.2 | 1220
338 K, x1 = 0.01 | 789.6
338 K, x1 = 0.02 | 838.3
338 K, x1 = 0.03 | 881.6
338 K, x1 = 0.06 | 988
338 K, x1 = 0.08 | 1039.6
338 K, x1 = 0.1 | 1082
338 K, x1 = 0.12 | 1119.6
338 K, x1 = 0.15 | 1164.2
338 K, x1 = 0.2 | 1215.4
343 K, x1 = 0.01 | 783.6
343 K, x1 = 0.02 | 832.3
343 K, x1 = 0.03 | 875.7
343 K, x1 = 0.05 | 947.6
343 K, x1 = 0.06 | 982.3
343 K, x1 = 0.1 | 1076.4
343 K, x1 = 0.12 | 1114.2
343 K, x1 = 0.2 | 1210.1
348 K, x1 = 0.01 | 777.8
348 K, x1 = 0.03 | 869.9
348 K, x1 = 0.05 | 941.9
348 K, x1 = 0.06 | 976.6
348 K, x1 = 0.1 | 1070.9
348 K, x1 = 0.15 | 1153.5
348 K, x1 = 0.2 | 1204.9
